Data on 44 sequences can be found in the supplement of paper PMC11417369.

The other results are listed elsewhere or left out.

The assay has as its system PfAP2-HC AP2 domain (GST-tagged). Description: gcPBM binding intensity (ln(normalized median fluorescence intensity)); higher = stronger DNA binding. The procedure, abridged: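 GST-fused DNA-binding domains of P. falciparum, expressed in E. coli, were applied at about 25 μg on average for 1 h to an Agilent 4 × 180k array of primer-extended double-stranded 36-bp intergenic genomic probes and negative controls. Binding intensity is the highest Masliner-normalised natural-log median intensity across replicate spots of either probe orientation, measured with Alexa488 anti-GST antibody and a 488 nm scan.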
For “TACTCCTCAATATTATGTACATATAATAGTTATAAA [XGTACX_site8551]”, the “gcPBM binding intensity (ln)” value is 9.56.
With “ATATATAAACACTCTTGTACATAATAATGTATATAT [XGTACX_site2451]”, the “gcPBM binding intensity (ln)” value amounted to 9.73.
Regarding “TCGTATCTATTGAGGGTGCCTCTATAATTGATACAA [GTGCAC_site9636]”, the “gcPBM binding intensity (ln)” value stood at 9.08.
Turning to “TAATATAATATATGCACACAAATATGTATTTATGTG [CACACA_site5210]”, the “gcPBM binding intensity (ln)” value worked out at 10.3.
In the case of “AGTAAATAATAGATCGCATGTAATAACTAGTAGGAA [TGCATGCA_site948]”, the “gcPBM binding intensity (ln)” value was found to be 9.89.
Next, “ACAATTGAAGAAATACGTACATAAAGAAAAACTAGT [XGTACX_site820]”: 9.92.
Next, “ATTATAAAGACATATACACACATACGTACATACATA [CACACA_site5893]”: 10.1.
As for “AGTATAAAATAAATGTGTACACAAGAAAATATGTTA [XGTACX_site8381]”, the “gcPBM binding intensity (ln)” value is 10.1.
Regarding “AAAATCACAAGACACACACACACAAAAAAAAAAAAA [CACACA_site6791]”, the “gcPBM binding intensity (ln)” value amounted to 11.5.
In the case of “ATATATATATGTATGTGTCCACAAGGAGATATATAT [XGTACX_site783]”, the “gcPBM binding intensity (ln)” value is 10.
Next, “AAAATATTTTAATGTTGTACATTAATATATTATATA [XGTACX_site2513]”: 9.5; “TGTATTAAATTTTGAACACACAAAATAAAACATATA [CACACA_site1672]”: 9.7; “TACATAAATATATGTGTGCACAATTTCGTATATTTA [GTGCAC_site9859]”: 10.
For “TGTACATTCGGAGTAAAAAAAAATTTATACAATTAC [CACACA_negctrl_site1451]” the value was 9.38.
“AACAGATAAAAGGGTACACACATATATACCTGTACA [CACACA_site4285]”: the “gcPBM binding intensity (ln)” value is 9.87.
In the case of “AAACAGAAGACATATACACACATACAAAAAAGTGCA [CACACA_site4699]”, the “gcPBM binding intensity (ln)” value turned out to be 10.2.
Regarding TTCTCATTCAAATTAGTGCATTTTTGTTATTACATT, the “gcPBM binding intensity (ln)” value worked out at 9.8.
With “TGTGTATATATATAATGTACATAAAGATTTATATAT [XGTACX_site5835]”, the “gcPBM binding intensity (ln)” value was 9.66.
“TTATTTATATATTCATGTACATAACATTTCATTCGA [XGTACX_site4388]”: the “gcPBM binding intensity (ln)” value stood at 9.51.
Next, “TTTTAAGAATAAAATTGTACACATACATGTGTTCGC [XGTACX_site438]”: 9.66; “ATATAAATTTTTTAGAGTACTAAAATAAAATAATAT [XGTACX_site2118]”: 9.57.
For the sequence “TTTTCTAAAATGAATTGTACTTGATTATTTAAAAAA [XGTACX_site6097]”, the “gcPBM binding intensity (ln)” value came to 9.25.
Turning to “TAAAAAATGAAAAAGCGTACATGTTTTCTTATATTA [XGTACX_site1722]”, the “gcPBM binding intensity (ln)” value is 9.62.
In the case of “ATACTAAAAAGTATCTGTACTTATTTTAAAAATAAA [XGTACX_site4116]”, the “gcPBM binding intensity (ln)” value was found to be 9.34.
On to “TAAATAATTAAAATATGTACTGAAATGTAATTATTT [XGTACX_site5894]”, for which the “gcPBM binding intensity (ln)” value worked out at 9.64.
As to “TATTTACTTATATGCACACATAAATGTGAATTATGG [CACACA_site3777]”, the “gcPBM binding intensity (ln)” value was 9.69.
Next, “TGTATCATAAAAATAACACACGTATTTTTTTTTATT [CACACA_site1050]”: 9.65; “AATAATATATATATATATATAATAAAATATAAATAG [CACACA_negctrl_site1515]”: 9.83; “CCAACATGCCCACGCACACACAAAAAAAGCATGCAT [CACACA_site4217]”: 10.
Regarding “TTATTTATTTATAATAGTACAATTTAATGATCTTCT [XGTACX_site4831]”, the “gcPBM binding intensity (ln)” value amounted to 9.37.
Next, “TGTTTTATACTAAATGAACACACACCCATATATATA [CACACA_site7912]”: 10.1; “CAATATATTTGATTTACACACTTACAATGTATATAA [CACACA_site2994]”: 9.55.
In the case of “AAAAATAACGTAAATTGTACATGTAAAATTTTCTAT [XGTACX_site7158]”, the “gcPBM binding intensity (ln)” value was found to be 9.78.
As for “ATATGAAATAATAATAGTACATAAAATAATTTTACT [XGTACX_site6964]”, the “gcPBM binding intensity (ln)” value was found to be 9.66.
Next, “ATAGAAATATATATATGTACATATAGATAAATCTAT [XGTACX_site7833]”: 9.75; “ATAAATACAGATAACACACACATATATATATATATA [CACACA_site5431]”: 10.2.
On to “AAAAAAAAAAAAGATACACACAAAAATGAATATATA [CACACA_site2099]”, for which the “gcPBM binding intensity (ln)” value was 9.95.
Regarding “ATTATGTATATAAATTAACACACATATGTGGTTAAT [CACACA_site9028]”, the “gcPBM binding intensity (ln)” value turned out to be 9.69.
With “ACGGGTCAATATATGCGTACTTATTTAAATAATTAA [XGTACX_site1518]”, the “gcPBM binding intensity (ln)” value came to 9.61.
Next, “AATAATATAGATTGTACACACAAAATGGGAAAAAAA [CACACA_site1886]”: 10.1; “ATAAATGGAAACAAAAGTACTAAAAAAAAAAAATAA [XGTACX_site1510]”: 9.65; “TATATATGTATGTATTGTACAATTAAAAATATGTAT [XGTACX_site3990]”: 9.68.
As for “ATCAAGCACCAACACACACACACACCCCCACCCACA [CACACA_site370]”, the “gcPBM binding intensity (ln)” value was determined as 11.3.
For “TAAATAAATAAAAAAACACACATATATATATATATA [CACACA_site4029]” the value was 10.
